The text below walks through data of the RNAGym collection of RNA variant scans (doi:10.1093/nar/gkz1192).

The labels stand for the following.
B1: CPEB3 Ribozyme (parent)
chain: UAACAGGGGGCCACAGCAGAAGCGUUCACGUCGCAGCCCCUGUCAGAUUCUGGUGAAUCUGCGAAUUCUGCUGUAUAUCUC

The source gives no read counts; variants with many changes may rest on few reads.

The variants in this series derive from B1. Briefly: self-cleavage, relative activity (ratio to wild type); higher = more cleavage; in vitro, sequencing. An outline of the steps: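 CPEB3 self-cleaving ribozyme mutant libraries were made by rounds of error-prone PCR, barcoded, and transcribed in vitro with T7 RNA polymerase for 5 hours at 37°C. Cleavage occurred during transcription and a 15 min DNase I step before EDTA stop. RNAs were reverse transcribed with template switching and Illumina-sequenced, with DNA sequencing mapping barcodes to variants. Relative activity is the variant's cleaved/total read fraction divided by wild type's (minimum 5 reads), averaged across three batches.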
In the case of A13G U26C U69A U80A, the self-cleavage worked out at 0.23. A13G G52A A56G: the self-cleavage was determined as 1.04. As for A13G A64U U74C A75G, the self-cleavage was 0.12. To A13G U41A U51A U54C U78C belongs 0.27; to A13G U26C U72C, 0.45; to A13G C23G U26C G36A G55U, 0.05.

As to A13G C17G G52U, the self-cleavage is 0.18. On to A13G U26A U60C, for which the self-cleavage was 0.18. In the case of A13G U31A U76A, the self-cleavage amounted to 0.71. For the variant A13G C23U A47G U51C U78A, the self-cleavage was 0.16. With A13G C40A U54C U72C, the self-cleavage came to 0.12. A13G C39U A47G A56G U69C: the self-cleavage turned out to be 0.2. With A13G U25C U26C U31A C68G U78C, the self-cleavage is 0.1. For the variant A13G G22C U67C U74A, the self-cleavage stood at 0.04. On to A13G U26A A65G U72C, for which the self-cleavage is 0.14. Consider A13G G33A G55C U72A, for which the self-cleavage was determined as 0.04. Take A13G U41C U78A: the self-cleavage was 0.44. Turning to A13G U26C C39G U41A A47U U69G, the self-cleavage is 0.05. To A13G U25C U76A U78C belongs 0.11; to A13G U25C A47G A75U, 0.15.

For A13G U41C U49C U60C A77G, the self-cleavage worked out at 0. Take A13G U31C C44U U66C U78C: the self-cleavage was 0.17. As to A13G C32A U43C U54A U66C, the self-cleavage worked out at 0.09. Turning to A13G U26C G33A U58C A75U, the self-cleavage amounted to 0.24.

Consider A13G U41C U74C, for which the self-cleavage stood at 0.67. For A13G C38A U69C, the self-cleavage was 0.42. A13G C29U G61C U78C: the self-cleavage came out at 0.29. Take A13G U25C U51A A77G: the self-cleavage is 0.21. Consider A13G U26A A45G A57U U66C U72C, for which the self-cleavage amounted to 0.18. For the variant A13G U26C U31A A47C U72C, the self-cleavage turned out to be 0.13. For the variant A13G C14A A47G U49C A57G U69C, the self-cleavage is 0.06.

Consider A13G U25C U41C A65G U78C, for which the self-cleavage stood at 0.06. On to A13G G30A A35U U74A, for which the self-cleavage amounted to 0.13. For the variant A13G U25C C37U G70C U78C, the self-cleavage is 0.09. With A13G U25C C32A C37A U49C, the self-cleavage turned out to be 0.19. Regarding A13G U25C A35G U60C U69A, the self-cleavage stood at 0.05. On to A13G G19A U25C, for which the self-cleavage came out at 0.32. In the case of A13G U26A A64G A75C A77U, the self-cleavage worked out at 0.74. For the variant A13G U25C G36A G52A U67C U76A, the self-cleavage amounted to 0.11.

Take A13G U41A A57G: the self-cleavage amounted to 0.25. To A13G U25G C32A A57G belongs 0.11; to A13G G16A U26A U69A, 0.05; to A13G U31A U78G, 0.59. Take A13G G19C U66C U69A: the self-cleavage worked out at 0.15. For the variant A13G U26C U31C G55A A57U U78C, the self-cleavage was found to be 0.14. The result for A13G C17G A18G reads 0.4; that for A13G C40U A45G, 0.23.

With A13G U25C U26C A35G C79U, the self-cleavage was determined as 0.13. As to A13G U41A A57G U69C U78C, the self-cleavage was 0.14. A13G A65G U78C: the self-cleavage turned out to be 0.34. Turning to A13G A65G U78A, the self-cleavage was determined as 0.44. As for A13G U25C U41C U43C A56U U80C, the self-cleavage was 0.35.

On to A13G U31C A65G, for which the self-cleavage was found to be 0.2. The result for A13G U43C C44G G52A A65G U72C reads 0.07. As for A13G U26A A28U G33A U54G G63C, the self-cleavage is 0.28. To A13G G19C A65G belongs 0.18; to A13G A64U U66C, 0.15; to A13G U41C U51C U54C U78C, 0.61. Take A13G U41C U69C: the self-cleavage came out at 0.34. Turning to A13G U43C A56G A64G U76C, the self-cleavage came out at 0.09. With A13G C37A U76A U78A, the self-cleavage was determined as 0.33. The result for A13G G24A U26A U31C U48C reads 0.05. For the variant A13G G24A U31G U72C, the self-cleavage was determined as 0.14.

Turning to A13G U26C A65G, the self-cleavage turned out to be 0.25. Take A13G G73A U74C A75G: the self-cleavage was found to be 1.14.

For the variant A13G C23G U26A U74C, the self-cleavage is 0.63. Consider A13G G16A A21G A56G U72C, for which the self-cleavage turned out to be 0.19. As for A13G U31A C38U U49C, the self-cleavage worked out at 0.07.

For A13G G24A U25C U41C A57U, the self-cleavage was found to be 0.12. A13G U31A U49C A65G U80A: the self-cleavage stood at 0.09.

For A13G U41C A64G U67C U78C, the self-cleavage was determined as 0.06.

On to A13G C17U U69A U78C, for which the self-cleavage was 0.29. The result for A13G U41C G52C reads 1.01; that for A13G A64G U66C A77C, 0.1; that for A13G U25C A45G A57U U72C, 0.1. Consider A13G U41A A56G U74A, for which the self-cleavage was found to be 0.32. The result for A13G U41C U74A U78C reads 1.08. The result for A13G U25C A35G A45G U69A U72C U80A reads 0.06. To A13G U25A C32U U60A belongs 0.17; to A13G G19A U74C, 0.28; to A13G C14U U41C U67A, 0.19.

As for A13G U31C U54C, the self-cleavage came out at 0.71.

As to A13G U26A A28G A64U U80A, the self-cleavage came out at 0.13. With A13G U26C U54C U58C U80C, the self-cleavage was found to be 0.23. In the case of A13G U31A A65U, the self-cleavage was found to be 0.34. For the variant A13G U43A G46C A57G, the self-cleavage was found to be 0.24. As to A13G U43A A64U, the self-cleavage came to 0.44. Take A13G G19A A21G G22C U25C C71G: the self-cleavage was found to be 0.19. As for A13G U26A U67C U72A U74C A75G, the self-cleavage was 0.13. Take A13G G30U A45G: the self-cleavage came to 0.22. Regarding A13G U31C U51A U58A, the self-cleavage was 0.09. Take A13G C40A U49C A75G U76C: the self-cleavage came to 0.24.

Turning to A13G U26C U58C A77U, the self-cleavage was determined as 0.09.

As to A13G U25C C29U U43C U80C, the self-cleavage is 0.29. The result for A13G C29U G30C A35G U58C reads 0.06. For A13G G42U A65G, the self-cleavage came to 0.17. Turning to A13G C40U U58C, the self-cleavage is 0.43. For A13G C29U A35G, the self-cleavage amounted to 0.43. For A13G U31C U41A U43C, the self-cleavage came out at 0.2. Take A13G U41C U49C U72G: the self-cleavage stood at 0.43. As to A13G U25C C37A C39A U48C, the self-cleavage was determined as 0.23. Take A13G C17U U51C G61A: the self-cleavage stood at 0.11.

As to A13G C23G U25A A56U U69A, the self-cleavage amounted to 0.1. To A13G U26C U69C belongs 0.06; to A13G U26C U69A, 0.23; to A13G C38A U43C, 0.18. Regarding A13G C38U U58C U60G U78C, the self-cleavage is 0.05.

Regarding A13G U43A A45G A47U A64G, the self-cleavage amounted to 0.11. On to A13G U31C A35U U43C U58A, for which the self-cleavage worked out at 0.09. A13G A75U C81G: the self-cleavage stood at 1.25. To A13G A77U U78C belongs 1.1; to A13G C27U A35U, 0.08. With A13G U41C A64U U69A U72C U80C, the self-cleavage is 0.08. Turning to A13G C14U U66C U78C, the self-cleavage was determined as 0.31. In the case of A13G U26C U74C, the self-cleavage was 0.47. With A13G U25C U72C U80A, the self-cleavage was 0.08.

For A13G C38A U41C A56G U67A, the self-cleavage amounted to 0.06.

For A13G U26C U54G, the self-cleavage was determined as 0.48.

For the variant A13G C23U U26A A45G U49A U74G, the self-cleavage was determined as 0.14.

With A13G U25C U66A U72C, the self-cleavage amounted to 0.35. To A13G U25C C68G belongs 0.18. Consider A13G C23U C29A G36U U43C U66C, for which the self-cleavage is 0.07. On to A13G G19U A35U U48A, for which the self-cleavage stood at 0.04. With A13G U26G U48C U51A, the self-cleavage was 0.31. For the variant A13G C23A U25C A45G U51A U78A, the self-cleavage stood at 0.28. On to A13G G19C C29U G52U U60G A77G, for which the self-cleavage turned out to be 0.05. As to A13G C27A U67A, the self-cleavage came out at 0.17.

Consider A13G U26G C40U A57G U80C, for which the self-cleavage worked out at 0.27. For A13G G16C U41C A64U C79U U80A, the self-cleavage is 0.07. To A13G C23A U76C belongs 0.27. To A13G C27A A56C U72C G73U belongs 0.04. Regarding A13G C23G U66C U69G U74C, the self-cleavage was 0.23. With A13G U31C U54A A64C, the self-cleavage was determined as 0.05.

As for A13G U31G U51C U58C, the self-cleavage came out at 0.2. A13G C17U U41C A47U G63U A65G: the self-cleavage turned out to be 0.15. In the case of A13G U31C U41A U69C, the self-cleavage stood at 0.16. A13G U41A A57G U69C: the self-cleavage came to 0.11. To A13G G33U U41A A64G U69C belongs 0.15. With A13G U25C A65U A75U, the self-cleavage came to 0.08. As for A13G G36U U41A G55U U58C, the self-cleavage was found to be 0.14.

For A13G U26C U67A C81U, the self-cleavage is 0.12. Consider A13G C23U A35U U41G A45U, for which the self-cleavage amounted to 0.06.

Take A13G U26A U72A: the self-cleavage was determined as 0.16. The result for A13G U26A U72C reads 0.64; that for A13G G24C C38U A56U U78C, 0.17; that for A13G U25A U51G U78C, 0.09. The result for A13G C68A U78C reads 0.28; that for A13G G24A U66A, 0.06; that for A13G U26A U49C U78A, 0.45. Take A13G G19C A45G: the self-cleavage amounted to 0.29. Take A13G C68U U69A U76C: the self-cleavage is 0.27. On to A13G G16U A28U, for which the self-cleavage amounted to 0.2. The result for A13G U25C C37U C62U G70C U78C reads 0.05; that for A13G U25A A28G C40U A47G G63A, 0.21; that for A13G U26C A28U A57G, 0. For A13G G36A U41C, the self-cleavage was found to be 0.37. Regarding A13G C17G U31A A35G, the self-cleavage stood at 0.08. For A13G U26C C62U A64U, the self-cleavage is 0.24.

Consider A13G C38U A64G, for which the self-cleavage was 0.33. Turning to A13G U26A A35G, the self-cleavage is 0.74. Turning to A13G G22A U67C, the self-cleavage was found to be 0.13. Turning to A13G C17U A45C G52A U80C, the self-cleavage turned out to be 0.22.

For the variant A13G U25C U26C G53A A64G, the self-cleavage was found to be 0.32. As for A13G U26C U48C U72C, the self-cleavage was found to be 0.14.

A13G C50U U54C: the self-cleavage stood at 0.94.

For A13G U31C G33C G36C C68U, the self-cleavage came out at 0.14.

For A13G C27A A56C U78C, the self-cleavage is 0.06.
